# Some of the results follow.
# Test system: PfHDP1 homeodomain (GST-tagged)
# Experiment: gcPBM binding intensity (ln(normalized median fluorescence intensity)); higher = stronger DNA binding
# Outline: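 GST-tagged P. falciparum DNA-binding domains, expressed in E. coli (about 25 μg on average), were applied for 1 h to an Agilent 4 × 180k array of primer-extended double-stranded 36-bp intergenic genomic probes plus negative controls. The binding buffer was 1× PBS with 1% milk, 0.2 mg/ml BSA, 0.5% salmon testes DNA and 0.03% Triton X-100. Bound protein was detected with Alexa488 anti-GST antibody and scanned at 488 nm. Binding intensity is the highest Masliner-normalised natural-log median intensity across replicate spots of either probe orientation.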
row,Sequence,gcPBM binding intensity (ln)
1,AGTACAGACATAGACACACACACACCCATAAAAAAA [CACACA_site1515],6.68
2,TGTACATAAATCTAATTATTATATGTGTATATATAT [CACACA_negctrl_site1582],7.22
3,TTAAGATAGCAAATATGTACACATTTGTAAAATAAA [XGTACX_site4837],6.71
4,TCATGTTTTACAAAAACACACAAATGAATATAAACC [CACACA_site1161],6.89
5,TCACATATTATCTTTACACACTATATATAAGTTTTA [CACACA_site2790],6.8
6,AAGTGTATATAAAAATGTACATATTTCGATTTAAAT [XGTACX_site4161],6.69
7,TAATAAATATATAATTGTACTTAAAAGAATATAAAA [XGTACX_site2928],6.2
8,AATATATACCAACATAAATATATATATATATATATA [TGCATGCA_negctrl_site334],9.13
9,TTACACATATTATATATATATAAAAAAAAAAAATAT [CACACA_negctrl_site1684],6.82
10,ACCAATAATATACATACACACATAAAGGTTTATATA [CACACA_site315],6.66
11,AAAAATCGATACAAGCGTACAAAATAAAATAAAAAT [XGTACX_site5546],6.94
12,AGTTCGAATATATAAAGTACATAATTATATATTTGC [XGTACX_site2604],6.15
13,TCTATTAACTGATGTGCATGTTATAACCTAGAAGTA [TGCATGCA_site359],8.13
14,TAATATCATTTAGACACACACTCTTACAATATGTAA [CACACA_site5434],6.22
15,TGGATTCGTATATGTAGTACTATTTATATGTGATTT [XGTACX_site1581],6.43
16,TATATATATATATGTATATATGTATATCTATATTTA [CACACA_negctrl_site131],9.15
17,TCTTATCCTACTTTTATTTTTACTTTTTTTTCTTAT [CACACA_negctrl_site111],6.75
18,TAAATTGAGTATATTACACACATATAAATATATTAT [CACACA_site4027],6.57
19,ATATATATATATATATGTACATAATTAATAATTAGA [XGTACX_site5672],9.37
20,TTTTAATTGTTTATTTGTACATATGTTTAATTATAT [XGTACX_site571],6.79
21,ATTTATACAAAGCTTCGTACATAATGTATTCTTTTT [XGTACX_site2166],6.65
22,TTATTAAAAATGTATTGTACAAATTTATTAGTAAAT [XGTACX_site4799],6.44

row,Sequence,gcPBM binding intensity (ln)
1,TTATAATCTTTTGGTTCTATAGAATATCAAAAAATA [CACACA_negctrl_site1149],6.13
2,TTTTTTGCTTGGGTGAGAAAAAATAAAATAAAGGAA [TGCATGCA_negctrl_site139],6.85
3,TTTTTAAAAAAATTGATTCTTTTTCTTTTTTTTCTT [XGTACX_negctrl_site127],5.73
4,TATTATTGTCATTTTTTTTTTTTTTTTTTCTATTTC [XGTACX_negctrl_site114],5.85
5,AAAAAATAAAAGGAAAAAAAAAAAAAAAAAAAAAAT [CACACA_negctrl_site635],5.93
6,TAGACTCCCAGACACACACACACACCCATATAATAT [CACACA_site593],6.78
7,TATTATTATTGTTGATGTACATTTAATATAATATAT [XGTACX_site4482],6.44
8,TTTTTTTTTTTTGGTGCATGCACATTTTGTTTTTTT [TGCATGCA_site570],10
9,TTTATATTTTAAAAAATAATATTATGTATTTTTAAA [TGCATGCA_negctrl_site507],6.01
10,GTACTTATTAAATGTGCATGTTGATATATAAATGTA [TGCATGCA_site902],8.83
11,TTTAATATATATATGTGTACATATAAATTATATATA [XGTACX_site8511],6.22
12,ATATACATAAAAATATGTACATATAAAATATATACA [XGTACX_site2394],6.32
13,ATATAATAAACGTGTACACAATTAAATTATTATATA [CACACA_site5017],6.75
14,TATATTTATATATGTTGTACTCTCCAATAATATTCC [XGTACX_site4438],6.5
15,TTTATTAATGGACACACACACACACCCAAAATAAAA [CACACA_site4294],7.21
16,TCATATAAAACATGCACACATATGTACTCTTATAAA [CACACA_site3748],8.79
17,TGAATAAAAAAACCTAGTACTTAAATAAGTATATTT [XGTACX_site7690],5.5
18,ATTAAATGATCAAGGTGTACATTAACAAGAACTATA [XGTACX_site7022],6.73
19,TATATATTTATATTTACACACAGTTACTATGTAGAT [CACACA_site3292],6.52
20,TAAAAAAAATAGAAACGTACATAAAAAATAAATAAT [XGTACX_site5796],6.95
21,TATATATATACATACGTACACACAAATATTAAAATA [CACACA_site1950],7.45
22,TTTTGCGAAAAAAGGTGTACTGTAAATATATTGAGG [XGTACX_site8941],6.83

row,Sequence,gcPBM binding intensity (ln)
1,AGCACCCACCAACACACACACACACCCACCCACCGA [CACACA_site368],6.51
2,TTTTTTTTGATTTGTTTGCACTTATTTCCACAATAA,8.46
3,TTAATATGTTTAACCATTTTACATAAATTGATTTGT [CACACA_negctrl_site1100],6.3
4,TTTTTTTTTAATTACATAAAATAAAAATATTTCTAT [CACACA_negctrl_site584],6.06
5,TACGTAAATTTTAATACACACTATAGGATATTCTGC [CACACA_site5418],6.52
6,AAATAAATAAATATACGTACATATATATAATATATA [XGTACX_site5124],6.59
7,TTGTATCTTCATTTTATCAGAAAAAAAAAAAAAAAT [CACACA_negctrl_site775],6.11
8,ATTTTATTTATATACACACACATATATATATTATAT [CACACA_site822],7.09
9,ATATATATATATAGGGGTACTTAAATTTTACTAACC [XGTACX_site1832],9.11
10,AATAAATAAATAAATTAATATATATATATATATAGA [CACACA_negctrl_site1661],6.19
11,AAAGGGTTACAAGAGGAACACACAAAAAAATAAATA [CACACA_site8406],6.75
12,TAATAATAATACCAGCGTACATTTTTCTTTCCTACG [XGTACX_site4056],6.41
13,TATTTTTTCTTAAACACACACATATATATATATAAT [CACACA_site5567],6.89
14,TCTGTGTTTTTGGGTACACACAAATAGCTTGTATAT [CACACA_site4002],6.77
15,TGAAAATTAATAAAAAGTACATAGTCAGATTTGTGA [XGTACX_site2450],6.31
16,TTCCTTAATCAATATTGTACTTTTTATAAATTTAGT [XGTACX_site3678],6.86
17,TATATGTGACATGAATGTACCCAAATTATATAAGAA [XGTACX_site3937],6.4
18,ATTTAATATATTTATTGTACATATAAAATAAAAGAA [XGTACX_site2413],6.63
19,TATTCTTACACGTTTGCACACTAAAATATATATATA [CACACA_site435],9.97
20,CATAGGAACATAAGTTGTACGCTATACATACAACAT [XGTACX_site1054],6.22
21,TCTCCTTGTTCCTTTTTTTTAAAAAAAAACATTAAA [CACACA_negctrl_site679],7.2
22,ATAAATCCATGGGTAGTGCGCATTTTTTTTTTTTTT [GTGCAC_site9732],6.82

row,Sequence,gcPBM binding intensity (ln)
1,TTAGTGTATTAATTCTCACACACTAAGAAAAAAAAA [CACACA_site3878],6.31
2,ATAAAATGTATATGAATGCACTTGAAGTTTTTTTTT,7.25
3,TATATATATTTATACACACACATATATTTATATATT [CACACA_site484],6.95
4,ATTCACTGGTATGCATGAAAAAAAATATTATTATAA [CACACA_negctrl_site702],6.49
5,ATTTTGATAACCGTACGTACATATATATATATATAT [XGTACX_site6605],9.19
6,TGAATACTTATGTTCGCACACATGCAAATTAAAAAA [CACACA_site4048],7.27
7,TTATGTGTATACTAAGAACACACAAGTTACTTGGTG [CACACA_site8467],6.36
8,ACATGGTGATAATACTGTACAAAAATAAATAAATAC [XGTACX_site897],7
9,TTGTTTGGTTATAATTGTACGCATGTAATTACATAT [XGTACX_site4972],7.09
10,TTATTTTTCTAAAAAGCATGCAAATAAAGATATGAA [TGCATGCA_site1032],6.92
11,ACATTCAATAAACGTCGTACACTTTCCTTTTTATGA [XGTACX_site3274],6.84
12,AAAAAAACGATCGATCGTACTTATATTTACACATTC [XGTACX_site2883],6.37
13,ATATATATTTTATTATGTACTTACTTCTTTTCTTAA [XGTACX_site6163],6.53
14,TTTTATAGTCTTATGGGTACAAAATATTAACCCACG [XGTACX_site1131],6.1
15,CTAAACAAAAAATAATGTACACATACATAAAAAATA [XGTACX_site1808],6.12
16,AACACATACAAACACACACACAAAAAAAAAAAAAAA [CACACA_site393],6.92
17,ATTATATATGTATGGTGTACTAAGAATATTTTTTTA [XGTACX_site1950],6.36
18,CCCGAACAAACAAATAAACACACAAAAAAAAATATA [CACACA_site8540],6.78
19,TATTGAAAAAATAAAAGTACAAACTCTTATAATATG [XGTACX_site8196],6.05
20,ATTCAATATAAATACACACACACTTTTAATAATTAA [CACACA_site5963],6.88
21,AAAAGAATGAAACATAATAAATTACATTAAAATAAT [CACACA_negctrl_site897],6.26
22,TAATTATCACATTGCACACACATTTCCTTTTACATT [CACACA_site3443],9.61

# From the supplement of paper PMC11417369
